The values that follow come from the supplement of paper PMC11417369.

This is one part of the list.

In the assay the test system is PF3D7_0420300 AP2 domain 1 (GST-tagged). The experiment in a line: gcPBM binding intensity (ln(normalized median fluorescence intensity)); higher = stronger DNA binding. The essentials:
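In this array assay, P. falciparum DNA-binding domains with a GST tag, expressed in E. coli, were applied for 1 h to primer-extended double-stranded 36-bp intergenic genomic probes and negative controls on an Agilent 4 × 180k array. Bound protein was visualised with Alexa488 anti-GST antibody at 488 nm. Binding intensity is the highest Masliner-normalised natural-log median intensity across replicate spots of either probe orientation.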
With “TATTATATATATAACTGTACGTTTATAATATAAAAA [XGTACX_site3778]”, the “gcPBM binding intensity (ln)” value was found to be 9.

With “TTTCTTTTTTTTTTTTGTACATATTTTAATTATTTT [XGTACX_site8676]”, the “gcPBM binding intensity (ln)” value came to 9.4.

“TACAAACTATGATGCACACATATATATCTGTATCCA [CACACA_site4809]”: the “gcPBM binding intensity (ln)” value stood at 9.44.

In the case of “AGTGTTAAAAATGAGGGTACATATAAAATACAGTTC [XGTACX_site457]”, the “gcPBM binding intensity (ln)” value is 9.58.

Regarding “ACAGGATTGGTTCAAACACACATATTATATGACTAT [CACACA_site4536]”, the “gcPBM binding intensity (ln)” value was 9.4.

“TAATCATTTTAGCTTACACACAAAATTTGGTTATAA [CACACA_site5604]”: the “gcPBM binding intensity (ln)” value came out at 9.49.

As to “ATGGAATTTTTAGAATATGGATAATGTTACTTAAGT [CACACA_negctrl_site494]”, the “gcPBM binding intensity (ln)” value turned out to be 9.14.

In the case of “AAAAACCATGGGCACACACACATAATATATAATATA [CACACA_site1425]”, the “gcPBM binding intensity (ln)” value was 10.

Regarding “TATATCGTTAATTATACACACATAAAATTAAACTTT [CACACA_site1274]”, the “gcPBM binding intensity (ln)” value was 9.39.

For the sequence “GTTATATATATATATATATATATATATATTTTTTTT [GTGCAC_negctrl_site597]”, the “gcPBM binding intensity (ln)” value was 9.03.

Regarding “TAAAAAAAGGAAAACATACAATTCTATTTTTCAATA [CACACA_negctrl_site474]”, the “gcPBM binding intensity (ln)” value turned out to be 9.04.

For “AAATTAAAAAAGAATATACACACCAAAACTGTTTGT [CACACA_site958]”, the “gcPBM binding intensity (ln)” value came out at 9.43.

“TATAATAATACTTATTGTACGATTAGCTTAATTCGT [XGTACX_site15]”: the “gcPBM binding intensity (ln)” value is 9.01.

Turning to “TATATAAATAGATACACACATACATACATACATACA [CACACA_site260]”, the “gcPBM binding intensity (ln)” value amounted to 9.68.

For the sequence “ACCATACATACATACACACACACACGCATATTTATA [CACACA_site7386]”, the “gcPBM binding intensity (ln)” value turned out to be 10.4.

In the case of “TAATTTTAAATATCTTCACACATTATATTTTTATAT [CACACA_site5411]”, the “gcPBM binding intensity (ln)” value amounted to 9.23.

Turning to “AAGGTGGAAACAATTACACACACACTAATAAAAAAA [CACACA_site9051]”, the “gcPBM binding intensity (ln)” value came out at 10.

Consider “AAGGGTTATTTGATATGTACTTATATATATATATAA [XGTACX_site1659]”, for which the “gcPBM binding intensity (ln)” value came to 9.26.

For the sequence “AAGTACAAATTTAATAAAAATGAAACAAATATGTAT [TGCATGCA_negctrl_site94]”, the “gcPBM binding intensity (ln)” value stood at 9.43.

With “AAAGATTGCGATGGTTGTACTTTTCTATATTTTTTT [XGTACX_site3492]”, the “gcPBM binding intensity (ln)” value is 9.47.

On to “CTAAAATACGAACACACACACACATATAAATAAATA [CACACA_site7872]”, for which the “gcPBM binding intensity (ln)” value was determined as 10.3.

Consider “TATACTTCTTATTAAATGAGTAGTATATATTATATA [TGCATGCA_negctrl_site299]”, for which the “gcPBM binding intensity (ln)” value stood at 8.98.

Consider “CTATTTCATAAACACACACACACAAACAAACATATA [CACACA_site8234]”, for which the “gcPBM binding intensity (ln)” value amounted to 10.4.

As to “ATTTAAAAAAGAAAGGTGCATTTCAATAATGTAAAA [GTGCAC_site9585]”, the “gcPBM binding intensity (ln)” value was determined as 9.13.

Regarding “TCATCTTTTATATGTTGTACGTATTTTCATTTATAT [XGTACX_site4855]”, the “gcPBM binding intensity (ln)” value came out at 9.55.

Regarding “TTGATATTTTTTTTATGTACACATGTTCATATTTTT [XGTACX_site8095]”, the “gcPBM binding intensity (ln)” value came to 9.43.

For “AAGTAGTGTTAATACTGTACTTATATTTTTTATTAT [XGTACX_site8264]”, the “gcPBM binding intensity (ln)” value was found to be 9.22.

For the sequence “TCACATATTATCTTTACACACTATAAATAAGTTTTA [CACACA_site7335]”, the “gcPBM binding intensity (ln)” value was 9.41.

“ATAATTTGATGGTTAACACACATATAGATTATAGAT [CACACA_site7200]”: the “gcPBM binding intensity (ln)” value is 9.49.

On to “TTTTTTTCTTTTTGAGGTACGCATTATTTTATTTGT [XGTACX_site6996]”, for which the “gcPBM binding intensity (ln)” value was 9.1.

With “TTATTATATATATCTCGTACGTGTATACGCCTACCA [XGTACX_site8375]”, the “gcPBM binding intensity (ln)” value came to 9.15.

For the sequence “TGTTATATTTCAAATTGTACTAATCTAATTAATAAA [XGTACX_site604]”, the “gcPBM binding intensity (ln)” value amounted to 8.82.

As to “AAAAAAATGAAACACACACACACATATATATATATA [CACACA_site1043]”, the “gcPBM binding intensity (ln)” value is 9.93.

For the sequence “ACAAAGTTTATAGAACGTACATACTTACACATATTT [XGTACX_site556]”, the “gcPBM binding intensity (ln)” value was found to be 9.3.

“AAACAATTACACATATGTATGTATATATATATATAT [TGCATGCA_negctrl_site536]”: the “gcPBM binding intensity (ln)” value amounted to 9.25.

Regarding “TGGCAAAATAGGCACACACACATATACATATATATT [CACACA_site1059]”, the “gcPBM binding intensity (ln)” value was 9.89.

Regarding “ATATTATAGTATATAACACACATTTTTCATAACACT [CACACA_site6331]”, the “gcPBM binding intensity (ln)” value was 9.59.

“TATATAATTAAAATAACACACATATATAAAAATATA [CACACA_site2990]”: the “gcPBM binding intensity (ln)” value turned out to be 9.58.

As to “GTATATATATTTCTTTAATAATTAAATTATAAATAT [CACACA_negctrl_site640]”, the “gcPBM binding intensity (ln)” value is 9.05.

As for “AATATATAAACACGTACACACACATATATGTATATA [CACACA_site9168]”, the “gcPBM binding intensity (ln)” value was found to be 9.96.

Take “AATTTAAATATTTGTTGTACGTATTTATATATTCTT [XGTACX_site3623]”: the “gcPBM binding intensity (ln)” value came out at 9.54.

“TATTATATCTTATATGTATATTCCCACAAATTATAT [GTGCAC_negctrl_site362]”: the “gcPBM binding intensity (ln)” value stood at 9.2.

In the case of “ATAATATATAAACACACACACATATATAAATACATT [CACACA_site4466]”, the “gcPBM binding intensity (ln)” value was determined as 10.1.

As to “CATGCCGTTAAATTATGTACTTATTATTTTAATATG [XGTACX_site4209]”, the “gcPBM binding intensity (ln)” value was determined as 9.31.

Take “TTAAAAAATTATTGTAGTACATAGGAAATGAAAAAA [XGTACX_site155]”: the “gcPBM binding intensity (ln)” value stood at 9.28.

Regarding “TAAATTAAATATTATAAACACACATATATATTATTT [CACACA_site8189]”, the “gcPBM binding intensity (ln)” value amounted to 9.35.

For “ATATAAATAAATACAACACACATGTCATATCTAAAT [CACACA_site7533]”, the “gcPBM binding intensity (ln)” value was 9.67.

For “TATATACATAAAATTTGTACATATATATATATATAT [XGTACX_site3214]”, the “gcPBM binding intensity (ln)” value came to 9.28.

Take “AAAAAAAAAAAATGAGCACACATAAATAAAAACAAA [CACACA_site8447]”: the “gcPBM binding intensity (ln)” value amounted to 9.81.

Turning to “ATATTATTCTTATATTCACACAGTTTATATTTCCGT [CACACA_site5653]”, the “gcPBM binding intensity (ln)” value came to 9.51.

In the case of “AAATTACATACACGCGCACACACAAAAAAAAAAAAA [CACACA_site1335]”, the “gcPBM binding intensity (ln)” value came to 9.81.

As for “TTCCAAAAAATTATTACACACATATGAGCACATATA [CACACA_site4543]”, the “gcPBM binding intensity (ln)” value turned out to be 9.47.

As to “TACGGTTGTTTATTTTGTACGTAAAAAATATATTAT [XGTACX_site8393]”, the “gcPBM binding intensity (ln)” value was found to be 9.39.

On to “TATTAATTAAAAAAATGTACATAATTATAAATTTTT [XGTACX_site7994]”, for which the “gcPBM binding intensity (ln)” value is 8.99.

Take “TAATATACATATATATGTACATATATATATATATAT [XGTACX_site2684]”: the “gcPBM binding intensity (ln)” value was 9.03.

In the case of “TATTTATATTCCTTTACACACTCCATCTTATATCCA [CACACA_site3604]”, the “gcPBM binding intensity (ln)” value was found to be 9.59.
